From PMC4336329 (PLoS ONE, 2015)
Among all 310,000 compounds or so, about 14,000 (4.5%) showed an effect of 50% or more. Effects have a minus sign here. Some of the results follow.

These compounds were tested against human ether-à-go-go-related gene (hERG) potassium channel (human, UniProt Q12809) (assay: primary screen, population patch clamp on CHO cells stably expressing hERG).
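Note: peak tail current of the secondary pulse compared with the same well before compound.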

Sequence of human ether-à-go-go-related gene (hERG) potassium channel (Q12809 whole entry, looked up): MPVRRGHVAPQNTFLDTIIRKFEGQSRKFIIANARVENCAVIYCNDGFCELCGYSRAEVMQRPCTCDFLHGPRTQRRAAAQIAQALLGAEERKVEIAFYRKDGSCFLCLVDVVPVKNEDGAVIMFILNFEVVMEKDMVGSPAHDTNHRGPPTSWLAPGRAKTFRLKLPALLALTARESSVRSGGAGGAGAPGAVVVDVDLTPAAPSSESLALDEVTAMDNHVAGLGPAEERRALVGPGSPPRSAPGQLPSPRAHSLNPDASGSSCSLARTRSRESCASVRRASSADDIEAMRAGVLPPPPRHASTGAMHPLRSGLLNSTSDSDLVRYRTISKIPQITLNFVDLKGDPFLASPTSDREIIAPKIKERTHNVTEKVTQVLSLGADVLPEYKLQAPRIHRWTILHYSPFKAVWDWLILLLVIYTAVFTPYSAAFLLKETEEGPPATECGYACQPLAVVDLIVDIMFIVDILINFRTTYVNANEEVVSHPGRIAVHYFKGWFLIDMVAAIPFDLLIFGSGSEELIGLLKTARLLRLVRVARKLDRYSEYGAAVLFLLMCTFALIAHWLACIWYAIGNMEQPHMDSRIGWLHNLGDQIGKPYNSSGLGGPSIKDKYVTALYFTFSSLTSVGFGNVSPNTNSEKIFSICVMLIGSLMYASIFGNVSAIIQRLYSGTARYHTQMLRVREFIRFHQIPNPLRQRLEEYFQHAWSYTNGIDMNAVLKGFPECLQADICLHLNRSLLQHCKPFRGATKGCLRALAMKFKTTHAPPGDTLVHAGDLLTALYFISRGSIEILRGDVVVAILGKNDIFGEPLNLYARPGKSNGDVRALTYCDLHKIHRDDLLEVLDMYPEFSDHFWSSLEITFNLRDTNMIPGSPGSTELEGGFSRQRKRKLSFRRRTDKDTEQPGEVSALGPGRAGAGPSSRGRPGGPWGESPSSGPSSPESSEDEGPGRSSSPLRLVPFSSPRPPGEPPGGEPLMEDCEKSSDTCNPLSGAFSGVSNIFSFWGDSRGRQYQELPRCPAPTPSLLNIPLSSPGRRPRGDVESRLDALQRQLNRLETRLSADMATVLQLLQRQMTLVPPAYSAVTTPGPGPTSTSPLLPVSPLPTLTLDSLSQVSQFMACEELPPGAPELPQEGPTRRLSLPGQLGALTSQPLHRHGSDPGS

Structure (SMILES)	hERG current change (%, negative = inhibition) at 10uM [%]
Cc1cccc(NC(=O)c2ccc3c(=O)n4c(nc3c2)CCCCC4)n1	-67.2
CCOC(=O)C1=C(CS(=O)(=O)c2ccc(F)cc2)NC(=O)NC1c1cc(OC)c(O)c(OC)c1 (stereo not shown)	10.3
COc1ccc(OC)c(NC(=O)c2nnn(Cc3ccccc3C)c2N)c1	-7.1
Cc1ccc(-n2nc3c(c2NC(=O)c2ccc(OC(C)C)cc2)CS(=O)C3)cc1 (stereo not shown)	-12.8
CCc1cccc(C)c1NC(=S)N1CC2CC(C1)c1cccc(=O)n1C2 (stereo not shown)	12.1
C=CCC1(CC=C)CCCN1C(=O)c1cc(COc2cncc(Cl)c2)on1	-11.6
O=C(COC(=O)CCc1ccc(S(=O)(=O)N2CCOCC2)cc1)Nc1ncc(C(F)(F)F)cc1Cl	-37.4
O=C(Nc1ccc(Cl)cc1)c1ccco1	-6.25
Cc1[nH]c2ccccc2c1/C=N/NC(=O)CCC(=O)Nc1ccccc1	11.4
O=C(NCc1ccco1)c1ccc2c(=O)n(Cc3ccco3)c(SCC(=O)N3CCCC3)nc2c1	-76.4
COc1ccccc1CC(=O)Nc1ccc(-c2noc(COc3ccc(Cl)c(C)c3)n2)cc1	1.7
Cn1c(O)c(/C=N/N2CCOCC2)c(=O)n(-c2ccccc2)c1=S	0.0549
COCc1nnc(NS(=O)(=O)c2ccc(NC(C)=O)cc2)s1	11
S=C(NCCc1ccccc1)NCC(c1ccco1)N1CCCCC1 (stereo not shown)	-36.3
CS/C(=N\S(=O)(=O)c1cccs1)Nc1ccc(Br)cc1F	-19.5
CCOc1ccc(S(=O)(=O)NCC2CCCO2)c2ccccc12 (stereo not shown)	-4.71
COc1ccc(NC(=S)N2CCCC(CO)C2)c(OC)c1 (stereo not shown)	-4.67
COCCCNC(=S)NCCCNc1nc2cc(C)cc(C)c2cc1C#N	-14.2
O=S(=O)(c1ccccc1)N1CCN(S(=O)(=O)N2CCCCCC2)CC1	10.6
CC(C)CNC(=O)CC(=O)N/N=C/c1ccc(F)cc1	-9.66
COc1ccc(-c2nnc(-c3ccccc3)o2)cc1OC	-35.8
C=CCOc1ccc2ccccc2c1/C=N/O	-16
CN1C(=O)CSc2ccc(NC(=O)N3CCN(c4ccccn4)CC3)cc21	-25.3
COc1cccc(OC)c1C(=O)Nc1ccc2c3c(cccc13)CC2	0.914
CCOc1ccc(OCC)c(NC(=O)CC2Oc3ccc(C)cc3NC2=O)c1 (stereo not shown)	6.38
Cc1c(C)n(C)c2ccc(C(=O)NCCCN3CCCC3)cc12	-23.8
CCOC(=O)CSc1nc2cc(C(=O)N3CCCC3)ccc2c(=O)n1Cc1ccccc1	-34
COCCNC(=O)CCn1c(=O)oc2ccccc21	9.49

Structure (SMILES)	hERG current change (%, negative = inhibition) at 10uM [%]
CCOC(=O)c1c(NC(=O)C2=C(C)NC(=S)NC2c2ccccc2C(F)(F)F)sc(C)c1C (stereo not shown)	9.21
Cc1nn(-c2ccc(C(=O)O)cc2)c(N)c1-c1ccccc1	26.7
Cc1cc2ccccn2c1C(C[N+](=O)[O-])c1c(F)cccc1Cl (stereo not shown)	15.8
CSc1ccc(C(=O)N2CCc3ccc(NC(=O)c4ccccn4)cc3C2)cc1	-4.13
COc1cc(C(=O)Nc2ccc(Cl)c(C(F)(F)F)c2)cc(OC)c1OC	-3.08
C/C(=N/NS(=O)(=O)c1cc(C)ccc1C)c1ccc2c(c1)OCO2	19.1
COc1cc2c(=O)n(Cc3ccco3)c(=O)n(CC(=O)c3ccc(Br)cc3)c2cc1OC	-3.02
FC(F)(F)c1ccccc1CN1CCN(C2CCCCCC2)CC1.O=C(O)C(=O)O	-49.3
CN(C)CCNS(=O)(=O)c1ccc(N2CCN(c3ccc(F)cc3)CC2)c([N+](=O)[O-])c1	-62.4
COc1ccc2nc(C)c(C(N)=O)cc2c1	12.5
O=[N+]([O-])C(C1CCS(=O)(=O)C1)C1CCS(=O)(=O)C1 (stereo not shown)	11.9
O=C(c1ccc(OC2CCN(CCc3ccccc3)CC2)cc1)N1CCCC(O)C1 (stereo not shown)	-2.05
Cc1ccc2c(c1)N(C(C)C(=O)NCc1ccc3c(c1)OCO3)C(=O)CO2 (stereo not shown)	0.0645
CC(=O)N1CCN(c2ccccc2NC(=O)c2ccc(C#N)cc2F)CC1	-49.6
CCOC(=O)CN/C=C(\C#N)c1ccccc1	16.2
CC(Sc1ncc(C#N)c(N)n1)C(=O)Nc1ccccc1 (stereo not shown)	8.65
CC(C)COC(=O)c1cccc2c1-c1ccccc1/C2=N\O	14.5
CCOc1ccc(CC(=O)Nc2c(C(N)=O)oc3ccc(Br)cc23)cc1OCC	-35.1
C/C(Cc1ccccc1)=N\NC(=O)CNC(=O)c1ccccc1Br	6.91
CCC(C)n1c(SCc2ccccc2)nc2ccsc2c1=O (stereo not shown)	-10.4
CCc1ccccc1Nc1nc2ccccc2[nH]1	-0.945
COc1ccccc1NS(=O)(=O)c1ccc(O)c(C(=O)OCC(=O)Nc2ccccc2F)c1	-21.4
Cc1ccc(S(=O)(=O)Nc2ccccc2-c2ccccc2NS(=O)(=O)c2ccc(C)cc2)cc1	12.4
O=P(c1ccccc1)(c1ccccc1)c1nc(-c2ccc(Cl)cc2)oc1N1CCOCC1	-74.1
C=CCN1C(=O)C2(C(C#N)=C(N)Oc3n[nH]c(CCC)c32)c2ccccc21 (stereo not shown)	11.1
O=C(c1ccccc1N1CCOCC1)N1CCCC(Nc2ccc(F)cc2)C1 (stereo not shown)	12.2
COC(=O)Cc1ccc(OC(=O)C2CCN(S(=O)(=O)c3ccc(OC)c(OC)c3)CC2)cc1	-0.191
